Data: the supplement of paper PMC6135742
Structures can show the parent of a compound that is named as a salt. ± gives the standard deviation of the averaged measurements. The full ranking holds about 2,600 compounds; the median of “MBP+ mature oligodendrocyte number relative to DMSO vehicle control” is about -0.34, and the highest 2% start at about 13. This is one part of the list.

The compounds below were run on jimpy (Plp1 jimpy) mouse iPSC-derived oligodendrocyte progenitor cells (assay: MBP+ mature oligodendrocyte number relative to DMSO vehicle control (SDs above negative control mean); higher = more surviving jimpy oligodendrocytes (rescue)). Settings: 10 µM; 3 days.
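Note: 10 µM single dose with 3-day oligodendrocyte differentiation.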

| Structure (SMILES) | MBP+ mature oligodendrocyte number |
| --- | --- |
| Cc1c(OCC(F)(F)F)ccnc1C[S+]([O-])c1nc2ccccc2[nH]1 (stereo not drawn) [Lansoprazole] | 7.5 ± 4.5 |
| CC[C@@H]1C(=O)N(C)c2cnc(Nc3ccc(C(=O)NC4CCN(C)CC4)cc3OC)nc2N1C1CCCC1 | < -6.7 |
| Cn1c(=O)c2c(ncn2C)n(C)c1=O [Caffeine] | -1.45 |
| COc1ccccc1CNCCCCCCNCCCCCCCCNCCCCCCNCc1ccccc1OC [Methoctramine tetrahydrochloride] | -3.58 |
| CC(C)c1noc(N2CCC(COc3ccc(-c4ccc(S(C)(=O)=O)cc4)nc3)CC2)n1 | 0.563 |
| O=C(NC1CCNCC1)c1n[nH]cc1NC(=O)c1c(Cl)cccc1Cl | < -5.15 |
| CC[C@H](Nc1ncnc2[nH]cnc12)c1nc2cccc(F)c2c(=O)n1-c1ccccc1 [CAL-101 (Idelalisib, GS-1101)] | -4.53 |
| COc1cc2c[n+](C)c3c4cc5c(cc4ccc3c2cc1OC)OCO5 [Nitidine chloride] | < -4.47 |
| CN(C)[C@@H](CCOc1cccc2ccccc12)c1ccccc1 [Dapoxetine HCl] | < -5.15 |
| CN(C)CCCC1(c2ccc(F)cc2)OCc2cc(C#N)ccc21 (stereo not drawn) [Citalopram hydrobromide] | -0.59 |
| Nn1nnc2ccccc21 [1-Aminobenzotriazole] | -0.197 |
| CCCC(CCC)C(=O)O [Divalproex Sodium] | 2.05 |
| CCCC(CCC)C(=O)O [Valproic acid sodium] | 0.147 |
| CCCC(CCC)C(=O)O [Valproic acid sodium salt (Sodium valproate)] | 0.72 |
| CN1Cc2sccc2C(c2ccc(O)c(O)c2)C1 (stereo not drawn) | -0.511 |
| COc1ccccc1N1CCN(CCN2C(=O)CC3(CCCC3)CC2=O)CC1 [BMY 7378 dihydrochloride] | -1.22 |
| COc1ccccc1N1CCN(CCN2C(=O)CC3(CCCC3)CC2=O)CC1 | -0.213 |
| OCC(O)CN1CCN(c2ccccc2)CC1 (stereo not drawn) [Dropropizine] | 3.19 |
| C[C@H](O)C(=O)C1=Nc2c(nc(N)[nH]c2=O)NC1 [Sepiapterin] | -1.5 |
| CN(CCCOc1ccc(Cc2ccccc2)cc1)CCC(=O)O | 0.896 |
| CC(C)(C)c1cc(/C=C(\C#N)C(N)=S)cc(C(C)(C)C)c1O [Tyrphostin AG 879] | 2.54 ± 2.2 |

| Structure (SMILES) | MBP+ mature oligodendrocyte number |
| --- | --- |
| CCC(=O)NCC[C@@H]1CCc2ccc3c(c21)CCO3 [Ramelteon] | 1.77 |
| COC1=CC(=O)C[C@@H](C)[C@]12Oc1c(Cl)c(OC)cc(OC)c1C2=O [Griseofulvin] | -1.37 |
| O=S(=O)(NCCNC/C=C/c1ccc(Br)cc1)c1cccc2cnccc12 | -3.89 |
| O[C@@H](COc1cccc2ncccc12)CN1CCN(C2c3ccccc3[C@@H]3[C@H](c4ccccc42)C3(F)F)CC1 (stereo partly drawn) | < -6.7 |
| COc1ccc(-c2coc3cc(O)cc(O)c3c2=O)cc1 [Biochanin A] | 1.74 |
| CNCc1ccc(-c2[nH]c3cc(F)cc4c3c2CCNC4=O)cc1 | 3.34 |
| CCCNC(C)C(=O)Nc1c(C)csc1C(=O)OC (stereo not drawn) [Articaine HCl] | 12 |
| CCNC(=O)c1noc(-c2cc(C(C)C)c(O)cc2O)c1-c1ccc(CN2CCOCC2)cc1 | < -6.7 |
| CC(=O)C1=C(O)C=C2Oc3c(C(C)=O)c(O)c(C)c(O)c3C2(C)C1=O (single isomer, unassigned; (+)) [(+)-Usniacin] | 2.86 |
| Cc1cnc(-c2cnc(NCCNc3ccc(C#N)cn3)nc2-c2ccc(Cl)cc2Cl)[nH]1 | -5.53 |
| O=C(O)c1cc2cccc([N+](=O)[O-])c2[nH]1 | 1.41 |
| COc1ccc(CCc2nc3cc(-c4c(C)noc4C)ccc3n2C[C@H](C)N2CCOCC2)cc1Cl | < -6.35 |
| Cc1c(NC(=O)OC[C@@H]2COCCN2)cn2ncnc(Nc3ccc4c(cnn4Cc4cccc(F)c4)c3)c12 | -6 |
| Cc1ccc2nc(NCCN)c3ncc(C)n3c2c1 | -4.64 |
| N[C@@H](Cc1c[nH]cn1)C(=O)O [L-Histidine hydrochloride] | 0.189 |
| CC(C[N+](C)(C)C)OC(N)=O (stereo not drawn) [Bethanechol chloride] | 0.404 ± 1 |
| COc1ccc(C[C@H](NC(=O)[C@H](C)NC(=O)CN2CCOCC2)C(=O)N[C@@H](Cc2ccccc2)C(=O)[C@@]2(C)CO2)cc1 | < -6.35 |
| COc1ccc2c(c1)C(=O)N(CCc1ccc(S(=O)(=O)NC(=O)NC3CCCCC3)cc1)C(=O)C2(C)C [Gliquidone] | 1.61 |
| C=CCc1ccc(O)c(-c2cc(CC=C)ccc2O)c1 [Magnolol] | -0.22 |
| NS(=O)(=O)Cc1noc2ccccc12 [Zonisamide] | 0.807 |
| C[C@H](NC[C@H](O)CP(=O)(O)Cc1ccccc1)c1ccc(Cl)c(Cl)c1 | 1.34 |

| Structure (SMILES) | MBP+ mature oligodendrocyte number |
| --- | --- |
| CC(=O)c1cc([N+](=O)[O-])c(Sc2ccc(F)cc2F)s1 | -3.06 |
| Cc1cn([C@H]2C[C@H](N=[N+]=[N-])[C@@H](CO)O2)c(=O)[nH]c1=O [Zidovudine] | -1.56 |
| Cc1cn([C@H]2C[C@H](N=[N+]=[N-])[C@@H](CO)O2)c(=O)[nH]c1=O [3'-Azido-3'-deoxythymidine] | -0.472 |
| COc1ccc([C@@H]2Sc3ccccc3N(CCN(C)C)C(=O)[C@@H]2OC(C)=O)cc1 [Diltiazem hydrochloride] | -1.59 |
| COc1ccc([C@@H]2Sc3ccccc3N(CCN(C)C)C(=O)[C@@H]2OC(C)=O)cc1 [Diltiazem HCl] | -1.01 |
| O=C(O)C[C@H](O)C[C@H](O)/C=C/c1c(C2CC2)nc2ccccc2c1-c1ccc(F)cc1 [Pitavastatin Calcium] | < -5.15 |
| O=c1[nH]c2cc(Cl)ccc2c(O)c1-c1cccc(Oc2ccccc2)c1 | -0.676 |
| Cc1ccc(C)c(OCCCC(C)(C)C(=O)O)c1 [Gemfibrozil] | 1.51 |
| COc1cc2c(cc1OC)[C@@H]1Cc3ccc(OC)c(OC)c3CN1CC2 [Rotundine] | 1.12 |
| O=C(CCCN1CCC(O)(c2ccc(Cl)cc2)CC1)c1ccc(F)cc1 [Haloperidol] | 2.36 ± 1.1 |
| CN1CCC(CNc2ccc3ncc(-c4cccc(OC(F)(F)F)c4)n3n2)CC1 [SGI-1776 free base] | < -4.81 |
| C[C@H](NC(=O)CCc1nc2ccccc2c(=O)[nH]1)c1ccccc1 | 0.693 |
| NCC(=O)CCC(=O)O [5-Aminolevulinic acid HCl] | 0.955 |
| Cc1ccc(Sc2ccccc2N2CCNCC2)c(C)c1 | -4.64 |
| O=C(O)c1ccc(-n2nc(-c3ccccc3O)nc2-c2ccccc2O)cc1 [Deferasirox] | 0.0731 |
| CC(N)(Cc1ccc(O)cc1)C(=O)O (racemic) [DL-alpha-Methyl-p-tyrosine] | 1.37 |
| O=C(NCc1cccc(O)c1)Nc1nc(-c2ccncc2)cs1 | -4.83 |
| COC(=O)CCc1ccc(OCC(O)CNC(C)C)cc1 (stereo not drawn) [Esmolol HCl] | 1.25 |
| COCCOC(=O)C1=C(C)NC(C)=C(C(=O)OC(C)C)C1c1cccc([N+](=O)[O-])c1 (stereo not drawn) [Nimodipine] | 0.263 ± 7.7 |
| NCCS [Cysteamine HCl] | 1.08 |
| NCCS [Cysteamine hydrochloride] | -1.15 |

| Structure (SMILES) | MBP+ mature oligodendrocyte number |
| --- | --- |
| COc1c(C)c2c(c(O)c1C/C=C(\C)CCC(=O)OCCN1CCOCC1)C(=O)OC2 [Mycophenolate Mofetil] | < -5.15 |
| CN1C(C(=O)Nc2ccccn2)=C(O)c2ccccc2S1(=O)=O [Piroxicam] | 0.743 ± 2.6 |
| COC(=O)[C@@H](N)Cc1ccc(O)c(O)c1 [L-3,4-Dihydroxyphenylalanine methyl ester hydrochloride] | 2.07 |
| COc1ccc2c(c1)c(CC(=O)O)c(C)n2Cc1ccc(Cl)cc1 [1-(4-Chlorobenzyl)-5-methoxy-2-methylindole-3-acetic acid] | -0.119 |
| CC1(C)CC(=O)c2c(C(F)(F)F)nn(-c3ccc(C(N)=O)c(N[C@H]4CC[C@H](OC(=O)CN)CC4)c3)c2C1 | < -6.01 |
| CC1(C)[C@@H](O)CC[C@]2(C)[C@H]3C(=O)C=C4[C@@H]5C[C@@](C)(C(=O)O)CC[C@]5(C)CC[C@@]4(C)[C@]3(C)CC[C@@H]12 [Enoxolone] | 2.35 |
| C[C@H]1COC2(CCN(c3nc(=O)c4cc(C(F)(F)F)cc([N+](=O)[O-])c4s3)CC2)O1 (racemic) [BTZ043 Racemate] | 1.24 |
| O=C1OC(=O)[C@H]2[C@@H]1[C@@H]1CC[C@H]2O1 [Norcantharidin] | -2.83 |
| CC(C)n1cnc2c(NCCc3ccc(O)cc3)nc(-c3csc4ccccc34)nc21 [StemRegenin 1 (SR1)] | < -6.01 |
| O=C(NNc1ccccc1)c1ccncc1 | 0.992 |
| Cc1cc(F)c(Nc2ncnc3cc(OCc4ccccc4)ccc23)cc1O | -5.77 |
| CCCCC1(C2CCCC2)Cc2cc(OCC(=O)O)c(Cl)c(Cl)c2C1=O (stereo in doubt) [R(+)-Butylindazone] | 0.712 |
| Cn1cncc1[C@@](N)(c1ccc(Cl)cc1)c1ccc2c(c1)c(-c1cccc(Cl)c1)cc(=O)n2C [Tipifarnib] | < -6.7 |
| Cc1nnc(SCC2=C(C(=O)O)N3C(=O)[C@@H](NC(=O)Cn4cnnn4)[C@H]3SC2)s1 [Cefazolin sodium] | -0.865 |
| Cc1cc(C#N)cc(C)c1Oc1nc(Nc2ccc(C#N)cc2)nc(N)c1Br [Etravirine (TMC125)] | 4.23 |
| Nc1nc2c(ncn2[C@@H]2O[C@H](CO)[C@@H](O)[C@@H]2O)c(=O)[nH]1 [Ara-G hydrate] | -0.925 |
| O=c1[nH]c(=O)n([C@H]2C[C@H](O)[C@@H](CO)O2)cc1C(F)(F)F [Trifluridine] | < -5.15 |
| S=c1[nH]cnc2nc[nH]c12 [Mercaptopurine (6-MP)] | -2.86 |
| NS(=O)(=O)c1ccc(NC(=O)Nc2ccc(F)cc2)cc1 | 1.29 |
| Cc1ccccc1C(=O)Nc1ccc(C(=O)N2CCCC(N(C)C)c3ccccc32)cc1 (stereo not drawn) [Mozavaptan] | 3.04 |
